In patent US6969449B2, “Multi-well plate and electrode assemblies for ion channel assays” (Vertex Pharmaceuticals (San Diego) LLC, priority 2000, dated 2005):

Tested on: NaV2 sodium channel
Conditions: for dependence of channel block on time window / shift of dose-response curves (use dependence): CHO NaV2, 20 Hz stimulus, 1 second vs 3 seconds

Structure (SMILES) | dependence of channel block on time window / shift of dose-response curves (use dependence) | inhibition of response from cells stimulated above 90 V/cm | EC50 (read-out: Electric field stimulation EC50) [nM]
CCCCN1CCCCC1C(=O)Nc1c(C)cccc1C (centres unmarked) [Bupivacaine] | smaller amount of shift |  | 
CCN(CC)CC(=O)Nc1c(C)cccc1C [Lidocaine] | smaller amount of shift |  | 
NC1=N[C@H](O)[C@H]2[C@H]3O[C@]4(O)O[C@@H]([C@@H](O)[C@@]2(N1)[C@@H]4O)[C@]3(O)CO [TTX, tetrodotoxin] |  | could not | 6
CCCCNc1ccc(C(=O)OCCN(C)C)cc1 [Tetracaine, tetracaine] | an order of magnitude stronger at 3 seconds than at 1 second |  | 
